Experimental findings from publication PMC6212790 are described below.

The list shows a part of the results. At the low end of the ranking the order means little.

For this assay, the target named is T1, GST-Rok-C97-191 (UniProt O34857).
T1 sequence: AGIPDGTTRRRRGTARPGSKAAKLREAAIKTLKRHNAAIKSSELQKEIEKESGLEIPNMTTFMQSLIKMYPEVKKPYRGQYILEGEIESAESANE
As to the kind of experiment: protein binding microarray.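 Also: rank score from −0.5 (least bound) to 0.5 (best bound).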 Particulars: Rok is a gene silencer of Bacillus subtilis; high values mean tight binding; most listed sequences are background and not binding sites; double strand, one strand shown.
In turn, GATATCAA displayed a binding signal of 0.158 E-score.
Turning to AAAACCCG, the binding signal is 0.00714 E-score.
For AGCTGCAT, the binding signal is -0.0626 E-score.
Consider GAGAAGAA, for which the binding signal came to 0.045 E-score.
GTAGGCAA registered a binding signal of 0.0486 E-score.
CTGCTGAA registered a binding signal of 0.0789 E-score.
Regarding ATATGCCG, the binding signal was determined as 0.0854 E-score.
For AGGTGCAC, the binding signal is -0.191 E-score.
For ACGCTGAT, the binding signal is -0.0219 E-score.
Consider CCCACTCG, for which the binding signal was -0.0304 E-score.
In turn, AAACTACG gave a binding signal of 0.387 E-score.
As for GTAGCTAA, the figure is 0.346 E-score; as for GGTAGGGA, 0.0672 E-score.
Turning to ACCAAACA, the binding signal was -0.0468 E-score.
With AGCACTCG, the binding signal was -0.17 E-score.
In turn, AGGCGACC registered a binding signal of -0.134 E-score.
ACGCATAA gave a binding signal of -0.107 E-score.
On to AACGCGCT, for which the binding signal was 0.141 E-score.
The sequence AATTCTTA showed a binding signal of 0.162 E-score.
Sequence CCGGGCTA showed a binding signal of -0.171 E-score.
Sequence GCCGTGTA yielded a binding signal of -0.0117 E-score.
The sequence CGAGCAAC gave a binding signal of -0.105 E-score.
Regarding ACCATAGA, the binding signal was determined as 0.01 E-score.
TGAAGTAA returned a binding signal of 0.132 E-score.
Sequence CTGGTGCC yielded a binding signal of -0.162 E-score.
ACATAAGG gave a binding signal of 0.0979 E-score.
Consider ATAGAGCC, for which the binding signal is -0.0348 E-score.
Then CCTTGCGC, with -0.237 E-score; and CCTGACAG, with -0.0267 E-score; and AAAATGCG, with 0.0254 E-score.
The sequence GGATCTTA displayed a binding signal of 0.114 E-score.
Take CAACGTGG: the binding signal stood at 0.0295 E-score.
Sequence TGTCGACA yielded a binding signal of -0.101 E-score.
With AGGGAGAA, the binding signal is -0.282 E-score.
The sequence CGAAATAC yielded a binding signal of 0.275 E-score.
ACTCGCTG showed a binding signal of -0.131 E-score.
As to AGTCGCGG, the binding signal is -0.162 E-score.
Then AATAGCTG, with 0.186 E-score; and CATGACCA, with -0.218 E-score.
As to GGACTATA, the binding signal is 0.0884 E-score.
In the case of ATAAGCGA, the binding signal was -0.0501 E-score.
GAACCCCA came in with a binding signal of -0.195 E-score.
As for AAAGCTCA, the binding signal stood at 0.0914 E-score.
In turn, AGTACATA returned a binding signal of 0.291 E-score.
In the case of GGTAATCA, the binding signal is -0.186 E-score.
As for AGCCTCAC, the figure is -0.174 E-score; as for ACGGGACC, -0.104 E-score; as for CAGGGTAC, -0.111 E-score.
In turn, AGTAAGGC displayed a binding signal of 0.0133 E-score.
As to AATACATT, the binding signal was 0.267 E-score.
For the sequence TACTTTGA, the binding signal was 0.121 E-score.
CCGTGGCG: the binding signal is -0.18 E-score.
Consider CCATAGAC, for which the binding signal is -0.0974 E-score.
GCCCACAA came in with a binding signal of -0.0476 E-score.
The sequence CTTAACGA came in with a binding signal of -0.149 E-score.
Regarding GACGATAC, the binding signal came out at 0.123 E-score.
ATGATTCG displayed a binding signal of -0.0774 E-score.
The sequence TCATCACA yielded a binding signal of 0.0668 E-score.
In turn, AGTTAGTA yielded a binding signal of 0.287 E-score.
With GTCTGCGA, the binding signal was -0.0347 E-score.
As for GGCATCGA, the figure is -0.0223 E-score; as for ACACGCCG, -0.172 E-score; as for CTTATATA, 0.321 E-score.
AGCTTAAT showed a binding signal of 0.115 E-score.
In the case of AGCATTAT, the binding signal was found to be 0.13 E-score.
Sequence CACGTGTA came in with a binding signal of 0.0319 E-score.
CTAAGCCA had a binding signal of -0.182 E-score.
As for GCCCGTCC, the figure is -0.0772 E-score; as for CGGACATA, 0.144 E-score.
On to ACGATCAT, for which the binding signal is -0.0749 E-score.
CGTTTGAC yielded a binding signal of -0.0968 E-score.
The sequence AATACCTG displayed a binding signal of 0.044 E-score.
As for CGTTATCA, the figure is 0.165 E-score; as for GGTTTATA, 0.167 E-score; as for ATGGACTA, 0.0139 E-score.
TAGAGCCA: the binding signal is -0.133 E-score.
The sequence AAGAATAA showed a binding signal of 0.138 E-score.
Regarding CTGATGGA, the binding signal is -0.122 E-score.
CGCGTGAA came in with a binding signal of -0.0226 E-score.
GGGGTGAC came in with a binding signal of -0.139 E-score.
ATAGGGGG had a binding signal of -0.174 E-score.
AACAACGT displayed a binding signal of 0.203 E-score.
As for ATAGCACC, the binding signal came out at 0.0126 E-score.
For CCCCCGAC, the binding signal is -0.345 E-score.
The sequence GCGCTGCC registered a binding signal of -0.374 E-score.
The sequence ATCGGTAC registered a binding signal of 0.196 E-score.
The sequence TCACGTGA displayed a binding signal of 0.0814 E-score.
CTTTACCA displayed a binding signal of 0.148 E-score.
With ACCCATCT, the binding signal came to 0.161 E-score.
Then ACTTATAT, with 0.29 E-score; and AATCTACA, with 0.365 E-score.
Sequence ATCGCCAT showed a binding signal of -0.0664 E-score.
In the case of TAACAGGA, the binding signal was determined as 0.0477 E-score.
As to AACTACTC, the binding signal came to 0.363 E-score.
CCTTGAAC had a binding signal of -0.221 E-score.
For GGAGCTGA, the binding signal was -0.14 E-score.
On to AGCAAACC, for which the binding signal is -0.0266 E-score.
In turn, ACTACTTG yielded a binding signal of 0.194 E-score.
On to ATTGAGAC, for which the binding signal was -0.0534 E-score.
As for GCGGGTCC, the figure is -0.0769 E-score; as for CTTATCTA, 0.262 E-score; as for AGTTTTTC, 0.00619 E-score.
In the case of CAGTGTCG, the binding signal is -0.0001 E-score.
Turning to CTTTCATC, the binding signal was -0.0985 E-score.
Sequence GACTATCC displayed a binding signal of -0.12 E-score.
Sequence CGGGGGCC displayed a binding signal of -0.363 E-score.
Sequence ACGTGTTC showed a binding signal of -0.37 E-score.
As for ACAGGGTC, the figure is -0.134 E-score.
Turning to GCGGCTGA, the binding signal is -0.25 E-score.
For CATTGGTA, the binding signal came to 0.279 E-score.
Then GCACGTGC, with -0.0531 E-score; and CGGTCTGC, with -0.0747 E-score; and CCAATCAG, with -0.247 E-score.
The sequence CCTTCACG returned a binding signal of -0.165 E-score.
As for CGAGGCCG, the figure is -0.353 E-score.
Then GCGTTAAC, with 0.015 E-score; and AGGCCGAA, with 0.0545 E-score.
For the sequence ATTGTGCA, the binding signal is 0.0905 E-score.
For GACCCGTA, the binding signal is -0.208 E-score.
Then CATTAGCC, with -0.175 E-score; and GGCTTACC, with -0.267 E-score; and ATGGATTC, with -0.0387 E-score.
As for ACCTTCAC, the figure is -0.123 E-score; as for ATATATTC, 0.374 E-score; as for CCTCGTCG, -0.202 E-score.
Regarding TGTCCACA, the binding signal stood at 0.0307 E-score.
Then GTGGACTA, with -0.00746 E-score; and CCTATGAA, with -0.0431 E-score; and GTCAGAGA, with -0.191 E-score.
As for ACCTGAAC, the figure is -0.0783 E-score.
With ACCGCCAA, the binding signal is -0.235 E-score.
The sequence CAGATTGC gave a binding signal of -0.286 E-score.
Then CTACAATA, with 0.211 E-score; and CTACTAAC, with 0.223 E-score.
Turning to TAAAGGGA, the binding signal turned out to be 0.115 E-score.
Sequence TGATGACA displayed a binding signal of -0.0558 E-score.
Turning to TCCTACAA, the binding signal was -0.0816 E-score.
Regarding GATTTAGA, the binding signal stood at 0.00036 E-score.
As to TTACCGAA, the binding signal stood at 0.0862 E-score.
As for ACGCTAGA, the figure is 0.0335 E-score; as for GCAACTAC, 0.239 E-score.
Sequence AACCAGTT displayed a binding signal of -0.0686 E-score.
As for CAGGTAGA, the figure is 0.223 E-score; as for CCCCGCAG, -0.171 E-score; as for ACTCGTAC, 0.0277 E-score.
With CCCTCGAC, the binding signal is -0.274 E-score.
On to GGTTTCAA, for which the binding signal was -0.223 E-score.
The sequence AATAACTC came in with a binding signal of 0.0976 E-score.
In turn, CGAGGTTC came in with a binding signal of -0.186 E-score.
Regarding ATAGAGGC, the binding signal is -0.0489 E-score.
Sequence CAGGTGTC came in with a binding signal of -0.123 E-score.
In turn, ATGGTACC yielded a binding signal of 0.263 E-score.
ACCAGATA came in with a binding signal of 0.238 E-score.
On to CTCGCGTA, for which the binding signal is -0.0258 E-score.
As for GCGAATTA, the figure is 0.175 E-score; as for AGAGGCGG, -0.269 E-score.
The sequence CGATAACA returned a binding signal of 0.00791 E-score.
Turning to AGATCTCG, the binding signal was determined as 0.021 E-score.
